We go through 1 molecule from paper PMC2651131, “Abelson tyrosine kinase links PDGFbeta receptor activation to cytoskeletal regulation of NMDA receptors in CA1 hippocampal neurons” (Molecular Brain, 2008).

The experiment concerns the target T1, PDGFβ receptor (rat (endogenous in CA1 hippocampal …, UniProt Q05030 32-1097)).
T1 construct: PDGFβ receptor, endogenous in CA1 hippocampal slices of day 14-22 Wistar rats; also called platelet derived growth factor β receptor; PDGF receptor; source: endogenous, lysate of rat CA1 hippocampal slices
T1 sequence (looked up): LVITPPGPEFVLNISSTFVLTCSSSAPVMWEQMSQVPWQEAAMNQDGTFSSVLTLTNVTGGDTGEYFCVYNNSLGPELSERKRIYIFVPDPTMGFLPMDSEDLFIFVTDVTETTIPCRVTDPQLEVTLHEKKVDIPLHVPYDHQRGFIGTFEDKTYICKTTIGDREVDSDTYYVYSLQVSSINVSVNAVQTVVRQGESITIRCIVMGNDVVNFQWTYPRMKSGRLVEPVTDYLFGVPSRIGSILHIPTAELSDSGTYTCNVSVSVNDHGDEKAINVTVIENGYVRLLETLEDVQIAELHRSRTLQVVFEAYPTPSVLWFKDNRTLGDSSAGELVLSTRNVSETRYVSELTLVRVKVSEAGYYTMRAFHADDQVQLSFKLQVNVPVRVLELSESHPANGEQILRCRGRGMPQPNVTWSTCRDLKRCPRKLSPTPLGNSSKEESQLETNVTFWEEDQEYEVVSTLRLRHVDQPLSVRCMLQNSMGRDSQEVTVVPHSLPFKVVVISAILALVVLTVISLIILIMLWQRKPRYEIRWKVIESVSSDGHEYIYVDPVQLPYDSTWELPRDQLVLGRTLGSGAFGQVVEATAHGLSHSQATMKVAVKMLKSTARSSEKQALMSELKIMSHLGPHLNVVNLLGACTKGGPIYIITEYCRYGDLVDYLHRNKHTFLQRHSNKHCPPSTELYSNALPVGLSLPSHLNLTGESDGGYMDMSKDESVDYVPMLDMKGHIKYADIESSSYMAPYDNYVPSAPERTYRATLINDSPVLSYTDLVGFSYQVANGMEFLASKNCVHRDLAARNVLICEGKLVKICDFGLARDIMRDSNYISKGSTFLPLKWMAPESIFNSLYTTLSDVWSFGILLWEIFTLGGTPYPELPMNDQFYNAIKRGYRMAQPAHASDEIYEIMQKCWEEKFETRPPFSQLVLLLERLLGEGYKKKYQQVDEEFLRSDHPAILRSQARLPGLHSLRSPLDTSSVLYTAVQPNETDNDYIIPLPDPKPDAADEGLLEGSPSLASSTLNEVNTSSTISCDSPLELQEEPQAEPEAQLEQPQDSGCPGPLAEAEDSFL
In words: co-IP; lysate of rat CA1 hippocampal slices (incubated 10 min without or with 10 ng/mL PDGF-BB), 1% NP-40 buffer; anti-PDGFβ receptor antibody precoupled to agarose beads; blot with anti-Abl. The note with it: partners not purified.

B1: Abelson tyrosine kinase (enzyme)
chain: not shown
notes: Abelson tyrosine kinase (Abl), endogenous in CA1 hippocampal slices of day 14-22 Wistar rats; The bought active mouse Abl kinase (Upstate) was used only for electrophysiology, not in the co-immunoprecipitations; also called Abl; Abl kinase; source: endogenous, lysate of rat CA1 hippocampal slices
Turning to B1, the “Abl immunoreactivity in PDGF receptor antibody pull-down after PDGF-BB, fold vs. control” value is 0.65 fold vs. control.
